The values that follow come from the RNAGym collection of RNA variant scans (doi:10.1093/nar/gkz1192).

Read counts are not given, so values of variants with three or more changes are uncertain.

First the molecules themselves.
B1: CPEB3 Ribozyme (parent)
chain: UAACAGGGGGCCACAGCAGAAGCGUUCACGUCGCAGCCCCUGUCAGAUUCUGGUGAAUCUGCGAAUUCUGCUGUAUAUCUC

In this series the parent is B1. The series can be described thus: self-cleavage, relative activity (ratio to wild type); higher = more cleavage; in vitro, sequencing. A digest of the protocol:
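Relative activity was defined as the cleaved/total read fraction for a variant divided by the same fraction for the unmutated ribozyme. CPEB3 self-cleaving ribozyme libraries were made by rounds of error-prone PCR, barcoded, and transcribed in vitro with T7 RNA polymerase for 5 hours at 37°C, and cleavage ran through transcription plus a 15 min DNase I step before EDTA. Illumina sequencing of template-switched reverse transcripts gave the reads, and DNA sequencing mapped the barcodes. Averages come from three batches, using variants with at least 5 reads.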
Consider C37A U41C U51A U54C, for which the self-cleavage worked out at 0.24.
With C38A A56G U66C, the self-cleavage was 0.09.
As for C37U C59A U67A, the self-cleavage came out at 0.09.
Then C38U C40U A64G U67C, with 0.11; and C39A C50U A57G U58A U78C, with 0.16; and A35U U51A U54C U60C U80C, with 0.3.
Consider A35U U60G U78A, for which the self-cleavage worked out at 0.13.
C37A U43C U67C: the self-cleavage came out at 0.07.
In the case of G36A C39U C50U U76C, the self-cleavage was 0.27.
Take C38A U69A U80A: the self-cleavage turned out to be 0.13.
For C37U C50A U80A, the self-cleavage worked out at 0.27.
With C37A C39A A56G G61A U69C, the self-cleavage was found to be 0.08.
Then G36A U49A A64G, with 0.14.
Then G36C C39A A57U, with 0.15; and C37A U43C U78C, with 0.17.
Then C39A G73C U80C, with 0.64; and G36C U49A U54C A56G, with 0.05; and C40A A45C U48C, with 0.17.
Consider G36U A56U A57G A75G, for which the self-cleavage came to 0.15.
For the variant C39A U41C U49C, the self-cleavage was determined as 0.15.
Then C39U U41C G55A A64G G70U U72A, with 0.13; and C39U U41C C71G U78C, with 0.27; and C37G U54A A65G U69A U72C C81G, with 0.18.
Turning to C39A C40U U41A U43C A45U U60C C71U, the self-cleavage worked out at 0.06.
Then A35U U54G U69C, with 0.09.
In the case of A35U U54G U69A, the self-cleavage was 0.28.
Then C39G A64G U69A, with 0.23.
For the variant C39A A45G U72A, the self-cleavage is 0.08.
Then G36A U41A U80C, with 0.08.
For the variant A35U U51A U60C U74C, the self-cleavage is 0.23.
Turning to C38U U67C A75G, the self-cleavage came out at 0.19.
Consider C38U U41C U51A, for which the self-cleavage is 0.88.
For the variant C39U G53A U80C, the self-cleavage was 0.84.
Then C37A A64U U80A, with 0.1.
Then C37A U60A U72C, with 0.08.
On to C39U C62U U80C, for which the self-cleavage stood at 0.57.
Then C39U A45U U49A, with 0.36; and G36A U49A U72C, with 0.18.
Then A35U U58C A64G G73A, with 0.17.
As for G36U U41A U43G A47G, the self-cleavage came to 0.2.
As for G36A U49A G52A, the self-cleavage was determined as 0.25.
For the variant G36A U67G A75G U78C, the self-cleavage was 0.15.
Then C39A U43C A45G, with 0.28.
Then G36A U43C U69A, with 0.07; and A35U U69C C79U, with 0.23; and C39U U51A U66C, with 0.29.
For A35U U66A U74C, the self-cleavage was determined as 0.15.
Consider G36U U43C A64U, for which the self-cleavage was 0.19.
As for A35U U49C U69A, the self-cleavage amounted to 0.1.
Take C38A U66C U69C U72A: the self-cleavage came out at 0.09.
As to C37U U49C A64G U69C, the self-cleavage worked out at 0.11.
As for C38U A45U A56G U80C, the self-cleavage stood at 0.14.
Then C39U G63U A64G U80A, with 0.35; and C38U U78C U80G, with 1.22; and G36C U48C G61U U80C, with 0.19.
Turning to C38A A45G A77C, the self-cleavage stood at 0.08.
Then C37U U41G U49C U60C U80C, with 0.15; and C40A A45U U72A, with 0.33; and C38A U51C U60C A64G, with 0.12.
On to C38A C40A U69G, for which the self-cleavage came out at 0.16.
C38U A45G U67C A75G U80C C81U: the self-cleavage worked out at 0.04.
Take A35U U51G A77C: the self-cleavage was 0.45.
Then G36C U49C U51C A65U, with 0.1.
For A35U U51C A56G G70A U80C, the self-cleavage was 0.1.
Take C38A A56G U60G: the self-cleavage came out at 0.39.
Consider C37U U41A U43A A47U A56G U67G, for which the self-cleavage amounted to 0.03.
For C39U A56G U78C, the self-cleavage was 0.51.
On to G36C A75U U80G, for which the self-cleavage was determined as 0.07.
Consider C39A U60A U74C, for which the self-cleavage was 0.43.
For C37U A45C G70C A77G U80C, the self-cleavage amounted to 0.09.
On to A35U U49A A64U U72A U74C A77G, for which the self-cleavage turned out to be 0.1.
For the variant C39A U41C A77U U78C, the self-cleavage is 0.13.
With G36A U41A U66G, the self-cleavage was found to be 0.12.
Consider C39A U41C A47G U49C U60C, for which the self-cleavage turned out to be 0.13.
As for A35U U51C U69A, the self-cleavage came to 0.13.
With C37A A45G U49C, the self-cleavage was determined as 0.06.
Consider A35U U54C U80A, for which the self-cleavage is 0.7.
As for A35U U54C U80C, the self-cleavage came to 0.66.
For C37G U54C C68A, the self-cleavage came to 0.1.
Take C39G U41A U43C A45U A47U U67A: the self-cleavage came to 0.08.
In the case of C39A U54A U80C, the self-cleavage is 0.13.
Take G36U C40U U54C U69A: the self-cleavage was 0.11.
Then C38U U66C U78G, with 0.06; and G36C A45U G61C U78C, with 0.03; and A35U U60A A64U, with 0.09.
Regarding A35U U60A A64G, the self-cleavage turned out to be 0.03.
Then C38U U41A A64G U78C, with 0.07; and A35U U49A A65G, with 0.11.
In the case of C39A G42A A64G, the self-cleavage came to 0.08.
Consider G36U A64G C68U U78C, for which the self-cleavage came out at 0.05.
Regarding C40A A47C U60G U69G, the self-cleavage is 0.2.
On to G36A U54C U80C, for which the self-cleavage amounted to 0.22.
In the case of C39U G55A U67A, the self-cleavage came to 0.18.
As for C38A C50A G55A U67C U80C, the self-cleavage is 0.04.
Consider C38U U41G U72C U80A, for which the self-cleavage turned out to be 0.11.
For the variant A35U U49A C62U, the self-cleavage was determined as 0.17.
Regarding A35U U54C A56G, the self-cleavage turned out to be 0.26.
Consider C39U U74C U78C, for which the self-cleavage amounted to 1.08.
On to C39G U60G A64U, for which the self-cleavage was 0.09.
Then A35U U66C A75G, with 0.11.
Take A35U U54A U78C: the self-cleavage amounted to 0.63.
Consider A35U U76A U78C, for which the self-cleavage amounted to 0.93.
Take G36A A56G U60C U67C: the self-cleavage stood at 0.11.
With C39A U58C G61A, the self-cleavage came out at 0.11.
As to A35U U54A U69G, the self-cleavage is 0.32.
Turning to G36U A45U U76A, the self-cleavage came out at 0.15.
C39G A57G A65G U67C U78C U80C: the self-cleavage was found to be 0.06.
For the variant A35U U54A U76A, the self-cleavage was found to be 0.79.
In the case of C39U A75G U80C, the self-cleavage is 0.48.
As to C37U A56G U69C, the self-cleavage amounted to 0.19.
Regarding A35U U58A U72A, the self-cleavage came to 0.13.
On to C39U U48C A77U, for which the self-cleavage was 0.27.
Then A35U U49C A64U A65G, with 0.14; and C38A U41C A64G C68G, with 0.12; and C39U A56G U66C C71G, with 0.08.
Consider A35U U49C U80A, for which the self-cleavage turned out to be 0.11.
In the case of C40A A45U C62U, the self-cleavage amounted to 0.13.
Then C38A U43C U54C A56G A57U, with 0.09; and C37U U69C U78G, with 0.58; and G36A U51A G55U A57G, with 0.14.
Regarding C39G U43A C68G, the self-cleavage was 0.14.
Then A35U U49C U51C U80A, with 0.13; and G36C A57G U69G U72C, with 0.15.
As for C38U U74G U80C, the self-cleavage is 0.77.
Take C37U C62U C71A: the self-cleavage stood at 0.14.
As for G36A G42A U43C C62G, the self-cleavage was 0.11.
Then G36A U43C A56G U78C, with 0.12; and C39A U43C U60A U80A, with 0.19; and A35U U54C U58C, with 0.28.
On to C39U U41G A56G U69C U76C, for which the self-cleavage was 0.13.
Turning to C37U U43A U51A A64G, the self-cleavage is 0.33.
With C38U A57G A77U, the self-cleavage was determined as 0.47.
Turning to C38A G63A A64C, the self-cleavage was found to be 0.14.
Then C39U A56G A64G U72C, with 0.26; and C37U U60C U80A, with 0.13; and C37A U49C A64U, with 0.06.
For the variant A35U U66C U69C, the self-cleavage came to 0.12.
Turning to C38U U67A U76A, the self-cleavage stood at 0.55.
For G36A G42U U72A, the self-cleavage was 0.14.
Consider C38A U41A U69A A75U, for which the self-cleavage turned out to be 0.06.
Then C38U A56G U72A, with 0.24.
Then C38U A45G U74C, with 0.93.
For the variant C38U A45U U49C U72C, the self-cleavage worked out at 0.08.
For the variant A35U U60C U78C, the self-cleavage came out at 0.19.
Then C40A A45U U69A U72C, with 0.18; and C39U U41C U51G, with 0.92.
Then C38A U51C A64G, with 0.3; and C37A A64G U76G, with 0.15; and C37G U41A U43A U51A, with 0.46.
Then C38A U43G U69C, with 0.16; and C38A U60C U78A, with 0.4; and A35U U60C C62U U69G, with 0.15.
Regarding A35U U67A U72A, the self-cleavage worked out at 0.1.
On to C40A A45G A65G, for which the self-cleavage turned out to be 0.12.
Regarding G36U U43A U49A U69A, the self-cleavage turned out to be 0.08.
In the case of C39U U43C U51A U54C A56G U76A, the self-cleavage was found to be 0.04.
For the variant C37U A47G U72A, the self-cleavage turned out to be 0.5.
Regarding A35U U60C U67C U74A U80C, the self-cleavage was 0.11.
C38U U58A U78C: the self-cleavage came to 0.07.
For the variant C39A U49C G53C U74A U78C, the self-cleavage turned out to be 0.07.
As to C39U U48C A75G, the self-cleavage is 0.42.
For the variant G36A U43A U58C G63A U72C, the self-cleavage was 0.
As to C38U U60C U69A U78C, the self-cleavage is 0.21.
For C39A A45G U60A, the self-cleavage was 0.12.
On to C40A A45U U49A, for which the self-cleavage was determined as 0.21.
C39G C40U G52C U69A: the self-cleavage was 0.19.
Then G36U U69A A77G, with 0.14.
